Measurements reported in publication PMC4081100.
Only a part is listed here, and it is no random draw. For some assays here: At the low end of the ranking, values are background and their order means little. The list shows a part of the results. For some assays here: Construct or isoform of the protein are uncertain.

Columns and labels:
Test in all cases: universal protein binding microarray (PBM)
Settings in all cases: transcription factors of Arabidopsis thaliana; high values mean tight binding; most listed sequences are background and not binding sites; double strand, one strand shown
GST-ANAC092(1-176) = molecular target: T1, GST-ANAC092(1-176) (UniProt Q9FKA0)
T1 sequence: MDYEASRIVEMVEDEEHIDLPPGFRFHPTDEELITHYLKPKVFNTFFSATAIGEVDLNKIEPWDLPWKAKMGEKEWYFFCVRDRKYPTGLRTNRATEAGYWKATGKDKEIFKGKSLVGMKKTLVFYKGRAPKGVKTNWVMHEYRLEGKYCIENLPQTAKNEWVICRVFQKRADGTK

GST-NTL6(1-168) = GST-NTL6(1-168) (UniProt Q9SCK6)
GST-NAP(1-166) = molecular target: T2, GST-NAP(1-166) (UniProt O49255)
T2 sequence: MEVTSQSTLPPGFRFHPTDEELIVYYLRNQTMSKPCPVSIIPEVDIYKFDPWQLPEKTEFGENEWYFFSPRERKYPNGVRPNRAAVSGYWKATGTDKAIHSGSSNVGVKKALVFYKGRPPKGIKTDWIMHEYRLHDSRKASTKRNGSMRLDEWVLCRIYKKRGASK

GST-NST2(1-184) = molecular target: T3, GST-NST2(1-184) (UniProt Q9M274)
T3 sequence: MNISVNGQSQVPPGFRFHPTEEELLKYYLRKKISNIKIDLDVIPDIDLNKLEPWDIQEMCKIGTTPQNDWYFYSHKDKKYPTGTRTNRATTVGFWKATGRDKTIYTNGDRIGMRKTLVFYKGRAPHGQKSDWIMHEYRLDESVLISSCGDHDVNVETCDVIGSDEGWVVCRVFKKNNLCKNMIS

GST-NTL8 NAC domain = molecular target: T4, GST-NTL8 NAC domain (UniProt Q9XIN7)
T4 sequence: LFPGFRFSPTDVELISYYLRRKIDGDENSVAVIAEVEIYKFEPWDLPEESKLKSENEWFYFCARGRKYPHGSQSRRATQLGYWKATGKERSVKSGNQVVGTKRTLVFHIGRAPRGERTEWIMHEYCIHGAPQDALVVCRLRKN

[1] = molecular target: T5, GST-VOZ2 (Arabidopsis thaliana) (UniProt Q9SLB9)
T5 sequence: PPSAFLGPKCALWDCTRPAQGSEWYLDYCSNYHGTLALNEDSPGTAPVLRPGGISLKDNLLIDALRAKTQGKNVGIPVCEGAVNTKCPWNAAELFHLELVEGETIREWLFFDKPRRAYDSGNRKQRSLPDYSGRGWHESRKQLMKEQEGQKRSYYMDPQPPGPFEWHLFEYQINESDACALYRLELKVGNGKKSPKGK

GST-WRKY1(266-371) = GST-WRKY1(266-371) (UniProt Q9SI37)
GST-ANAC019 NAC domain = molecular target: T6, GST-ANAC019 NAC domain (UniProt Q9C932)
T6 sequence: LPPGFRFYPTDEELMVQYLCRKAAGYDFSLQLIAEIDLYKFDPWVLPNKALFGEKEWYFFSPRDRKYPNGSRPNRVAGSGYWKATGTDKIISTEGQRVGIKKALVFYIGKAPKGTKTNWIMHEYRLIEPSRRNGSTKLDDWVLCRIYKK

[2] = molecular target: T7, GST-ANAC092(1-285) full length (UniProt Q9FKA0)
T7 sequence: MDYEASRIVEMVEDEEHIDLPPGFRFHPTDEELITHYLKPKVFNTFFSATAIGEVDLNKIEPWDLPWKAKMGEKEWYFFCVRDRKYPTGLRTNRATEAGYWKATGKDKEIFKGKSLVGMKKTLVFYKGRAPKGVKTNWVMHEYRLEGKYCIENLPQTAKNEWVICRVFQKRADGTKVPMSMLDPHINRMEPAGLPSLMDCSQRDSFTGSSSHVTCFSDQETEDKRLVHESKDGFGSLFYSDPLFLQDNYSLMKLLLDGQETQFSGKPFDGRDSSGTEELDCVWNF

GST-ANAC055(1-171) = molecular target: T8, GST-ANAC055(1-171) (UniProt Q9LDY8)
T8 sequence: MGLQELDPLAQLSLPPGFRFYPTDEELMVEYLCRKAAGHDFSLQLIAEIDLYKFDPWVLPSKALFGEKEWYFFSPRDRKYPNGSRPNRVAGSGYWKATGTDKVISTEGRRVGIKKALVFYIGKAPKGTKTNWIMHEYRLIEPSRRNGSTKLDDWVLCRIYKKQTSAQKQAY

GST-ATAF1 NAC domain = molecular target: T9, GST-ATAF1 NAC domain (UniProt Q39013)
T9 sequence: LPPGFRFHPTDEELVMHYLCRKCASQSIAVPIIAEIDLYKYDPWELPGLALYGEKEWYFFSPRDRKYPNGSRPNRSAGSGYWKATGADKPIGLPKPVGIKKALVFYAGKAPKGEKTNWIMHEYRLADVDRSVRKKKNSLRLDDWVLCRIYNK

GST-VND7 NAC domain = molecular target: T10, GST-VND7 NAC domain (UniProt Q9C8W9)
T10 sequence: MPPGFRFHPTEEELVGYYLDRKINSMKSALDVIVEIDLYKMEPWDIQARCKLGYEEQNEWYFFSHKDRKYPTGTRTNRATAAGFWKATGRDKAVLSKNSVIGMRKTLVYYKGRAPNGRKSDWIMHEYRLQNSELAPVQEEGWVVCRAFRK

Row | Sequence | binding signal (GST-ANAC092(1-176)) | binding signal (GST-NTL6(1-168)) | binding signal (GST-NAP(1-166)) | binding signal (GST-NST2(1-184)) | binding signal (GST-NTL8 NAC domain) | binding signal [1] | binding signal (GST-WRKY1(266-371)) | binding signal (GST-ANAC019 NAC domain) | binding signal [2] | binding signal (GST-ANAC055(1-171)) | binding signal (GST-ATAF1 NAC domain) | binding signal (GST-VND7 NAC domain)
1 | CACGCTAC | 0.46 E-score | -0.0636 E-score | 0.0384 E-score | 0.298 E-score | 0.00465 E-score | 0.0564 E-score | -0.0318 E-score | – | – | – | – | –
2 | ATACACGC | 0.39 E-score | -0.00434 E-score | 0.256 E-score | – | -0.0286 E-score | 0.0476 E-score | 0.0204 E-score | – | – | – | – | –
3 | GCGTGTGA | 0.374 E-score | -0.0187 E-score | – | 0.189 E-score | -0.0762 E-score | 0.0588 E-score | -0.00742 E-score | – | – | – | – | –
4 | CACGTTAA | 0.429 E-score | – | 0.129 E-score | 0.301 E-score | -0.04 E-score | 0.119 E-score | -0.119 E-score | 0.125 E-score | – | – | – | –
5 | ACACGCAT | 0.462 E-score | 0.0235 E-score | 0.332 E-score | – | -0.0867 E-score | 0.066 E-score | -0.0484 E-score | 0.346 E-score | 0.468 E-score | – | – | –
6 | ATTGCGTG | – | 0.0376 E-score | – | – | – | 0.143 E-score | 0.0947 E-score | – | – | – | – | –
7 | ACGCCAAC | 0.404 E-score | -0.066 E-score | – | – | -0.106 E-score | 0.151 E-score | -0.135 E-score | – | – | – | – | –
8 | AACGTAAC | – | 0.15 E-score | – | – | – | -0.00207 E-score | 0.0144 E-score | 0.15 E-score | – | – | – | –
9 | TAACGTAA | 0.452 E-score | – | – | 0.402 E-score | – | 0.0889 E-score | 0.0682 E-score | 0.25 E-score | – | – | – | –
10 | AATACTTA | -0.0424 E-score | – | -0.0246 E-score | – | 0.0845 E-score | 0.0468 E-score | -0.123 E-score | – | – | 0.162 E-score | – | –
11 | AGTAAGTA | 0.145 E-score | 0.415 E-score | 0.0452 E-score | – | -0.0257 E-score | 0.0588 E-score | 0.00622 E-score | 0.133 E-score | 0.184 E-score | – | – | –
12 | AATGCGTA | 0.371 E-score | -0.0301 E-score | 0.183 E-score | – | -0.00112 E-score | 0.167 E-score | -0.0228 E-score | 0.0337 E-score | – | 0.0991 E-score | – | –
13 | GTAACTTA | 0.271 E-score | 0.375 E-score | 0.133 E-score | 0.306 E-score | – | 0.139 E-score | -0.0548 E-score | 0.03 E-score | – | – | 0.233 E-score | –
14 | TTAAGAAA | – | – | -0.11 E-score | – | 0.273 E-score | 0.164 E-score | – | -0.000405 E-score | 0.227 E-score | – | – | 0.0318 E-score
15 | ATTGAGTA | 0.329 E-score | – | – | – | 0.129 E-score | 0.103 E-score | -0.124 E-score | 0.143 E-score | – | 0.176 E-score | – | –
16 | TTAAGTAA | – | 0.48 E-score | 0.0398 E-score | – | – | 0.134 E-score | -0.0688 E-score | 0.198 E-score | – | 0.0996 E-score | – | –
17 | TAAGGTCA | -0.0377 E-score | 0.242 E-score | – | 0.0344 E-score | – | 0.178 E-score | 0.441 E-score | -0.0928 E-score | -0.00901 E-score | 0.0336 E-score | – | –
18 | TCACGGAA | 0.363 E-score | -0.00634 E-score | 0.383 E-score | 0.0355 E-score | 0.0193 E-score | -0.0377 E-score | -0.0667 E-score | – | – | – | – | –
19 | CACGGCAG | 0.39 E-score | -0.0946 E-score | 0.227 E-score | 0.0722 E-score | 0.0421 E-score | -0.0116 E-score | -0.0404 E-score | – | – | – | – | –
20 | AATTCCGT | 0.274 E-score | – | – | 0.179 E-score | – | 0.0504 E-score | -0.0534 E-score | 0.456 E-score | – | – | 0.358 E-score | –
21 | ACGTAAAC | 0.397 E-score | -0.00688 E-score | 0.368 E-score | – | 0.0415 E-score | 0.128 E-score | 0.0172 E-score | – | – | – | 0.321 E-score | –
22 | ATGACGTA | 0.443 E-score | 0.0683 E-score | – | – | – | -0.052 E-score | 0.0111 E-score | – | – | – | 0.374 E-score | –
23 | AAAGCAAC | 0.268 E-score | – | -0.155 E-score | – | – | 0.0505 E-score | -0.0466 E-score | -0.0857 E-score | – | – | 0.00722 E-score | –
24 | ACGTTACC | – | 0.0139 E-score | – | 0.331 E-score | 0.384 E-score | -0.0169 E-score | 0.0431 E-score | 0.263 E-score | 0.467 E-score | – | 0.195 E-score | –
25 | CGTACACG | – | -0.0348 E-score | 0.288 E-score | 0.0623 E-score | -0.0615 E-score | -0.0519 E-score | 0.0423 E-score | 0.221 E-score | – | – | – | –
26 | ATGACGTG | – | -0.0151 E-score | – | – | -0.121 E-score | 0.0934 E-score | 0.0849 E-score | 0.311 E-score | – | – | – | –
27 | GACACGCA | – | -0.103 E-score | 0.283 E-score | – | 0.0711 E-score | 0.0798 E-score | 0.0431 E-score | – | – | – | 0.304 E-score | –
28 | GCGTGTAC | – | -0.101 E-score | 0.261 E-score | – | -0.0891 E-score | 0.0547 E-score | -0.0659 E-score | 0.19 E-score | – | – | – | –
29 | CACGTTTC | – | 0.107 E-score | – | – | 0.217 E-score | 0.0736 E-score | -0.0638 E-score | – | – | 0.375 E-score | – | –
